Test results as given in the RNAGym collection of RNA variant scans (doi:10.1093/nar/gkz1192).
The source gives no read counts; variants with many changes may rest on few reads.

B1: CPEB3 Ribozyme (parent)
chain: UAACAGGGGGCCACAGCAGAAGCGUUCACGUCGCAGCCCCUGUCAGAUUCUGGUGAAUCUGCGAAUUCUGCUGUAUAUCUC

Variants of: B1
Experiment: self-cleavage, relative activity (ratio to wild type); higher = more cleavage; in vitro, sequencing
In short: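 Relative activity compares each variant's cleaved/total read fraction with that of the unmutated ribozyme. To get these fractions, barcoded CPEB3 ribozyme libraries from rounds of error-prone PCR were transcribed with T7 RNA polymerase for 5 hours at 37°C and then given 15 min of DNase I treatment before EDTA was added. The RNAs were reverse transcribed with template switching and sequenced on Illumina, and DNA sequencing linked barcodes to variants. A minimum of 5 reads applied, and three batches were averaged.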

Row | Variant | self-cleavage
1 | UAACAGGGGGCCACAGCAGUAGCGUUCACGUCCCAGCCCCCGUCAGAUUCUGGUGAAUCUGCGAAUUCUGCUGUAUAUCUC [A20U G33C U41C] | 0.19
2 | UAACAGGGGGCCACAGCAGUAGCGUUCACGUCGCAACCCCUGUCAGUUUCUGGUGAAUCUGCGAAUUCUGCUGUAUAUCUC [A20U G36A A47U] | 0.08
3 | UAACAGGGGGCCACAGCAGUAGCGUUCACGUCGCAGCCCCUGUCAGAUUCUCGUGAAUCUGCGGAUUCCGCUGAAUAUCCC [A20U G52C A64G U69C U74A U80C] | 0.15
4 | UAACAGGGGGCCACAGCAGUAGCGUUCACGUCGCAGCCCCUGUCAGAUUCUGAUGAAUCUGUGAAUUCUGCUGUAUGUCUC [A20U G53A C62U A77G] | 0.11
5 | UAACAGGGGGCCACAGCAGUAGCGUUCACGUCGCAGCCCCUGUCAGAUUCUGGUAAAUCUGCAAAUUCUGCUGUAUAUCUC [A20U G55A G63A] | 0.23
6 | UAACAGGGGGCCACAGCAGUAGCGAUCACGUCGCAGCCCCUGUCAGAUUCUGGUGAAUCUGCGAAUUCUGGUGUAUAUCUC [A20U U25A C71G] | 0.13
7 | UAACAGGGGGCCACAGCAGUAGCGAUCACGUCGCAGCCCCUGUCAGAUUCUGGUGAAUCCGCGAAUUCUGCUGUAUAUCGC [A20U U25A U60C U80G] | 0.09
8 | UAACAGGGGGCCACAGCAGUAGCGAUCACGUCGCAGCCCCUGUCAGAUUCUGGUGAAUCUGCGAAUUCUGCUGAACAUCUC [A20U U25A U74A U76C] | 0.35
9 | UAACAGGGGGCCACAGCAGUAGCGCUCACGUCACAGCCCCUGUCAGAUUCUGUUGUAUCUGCGAAUUCUGCUGUAUAUCUC [A20U U25C G33A G53U A56U] | 0.05
10 | UAACAGGGGGCCACAGCAGUAGCGCACACGUCGCAGCCCCUGUCAGAUUCUGGAGAAUCUGCGAAUUCUGCGGUAUAUCCC [A20U U25C U26A U54A U72G U80C] | 0.24
11 | UAACAGGGGGCCACAGCAGUAGCGCUCACGCCGCAGCCCCUGUCUGAUUCUGGUGAAUCUGCGAAUUCUGCUGUAUAUUCC [A20U U25C U31C A45U C79U U80C] | 0.07
12 | UAACAGGGGGCCACAGCAGUAGCGCUCACGUCGCAGCCCCUGUCAGAUCCUGGUGAAUCUGCGAAUUCUGCUGUAUAUCUC [A20U U25C U49C] | 0.26
13 | UAACAGGGGGCCACAGCAGUAGCGUACGCGUCGCGGCCCCUGUCAGAUUCUGGUGAGUCUGCGAAUCCUGCUGUAUAUCUC [A20U U26A A28G A35G A57G U67C] | 0.09
14 | UAACAGGGGGCCACAGCAGUAGCGUCCACGUCGCAGCCCCUGUCAGAUUCUGGUGAAUCUGCGAAUUCUGCUGUAUUUCUC [A20U U26C A77U] | 0.17
15 | UAACAGGGGGCCACAGCAGUAGCGUCCACGUCGCAGCCCCUGUCAGACUCUGGUGAGUCUGCGUAUUCUGCUGUAUAUCCC [A20U U26C U48C A57G A64U U80C] | 0.12
16 | UAACAGGGGGCCACAGCAGUAGCGUUCACGACGCAGUCCCUGUCAGAUUCUGGUGAAUCUGCGAAUUCUGCUGUAUAUCUC [A20U U31A C37U] | 0.07
17 | UAACAGGGGGCCACAGCAGUAGCGUUCACGACGCAGCCCCUGUCAGAUUCUGGUGAAUCUACGAAUUCUGCUGUAUAUCUC [A20U U31A G61A] | 0.11

Row | Variant | self-cleavage
18 | UAACAGGGGGCCACAGCAGUAGCGUUCACGCGGCAGGCCCUGACGGAUUCUGGUGAAUCUGCGAAUUCCGCUGUAUAUCUC [A20U U31C C32G C37G U43A A45G U69C] | 0.07
19 | UAACAGGGGGCCACAGCAGUAGCGUUCACGCCGCAGCCCCUGACAGAUUCUGGUGAAUCUGCGAAUCCCGCGGUAUAUCUC [A20U U31C U43A U67C U69C U72G] | 0.07
20 | UAACAGGGGGCCACAGCAGUAGCGUUCACGCCGCAGCCCCUGCCAGAUUCUGGUGAAUCCGUGAAUUCUACUGUAUAUCUC [A20U U31C U43C U60C C62U G70A] | 0.12
21 | UAACAGGGGGCCACAGCAGUAGCGUUCACGGCGCAGCCCCUGACAGAUUCUGGUGAAUCUGCGAAUUCUGCUGUAUAUCUC [A20U U31G U43A] | 0.3
22 | UAACAGGGGGCCACAGCAGUAGCGUUCACGUCGCAGCCCCAGUCAGAUUCUGGUGGAUCCGCGAAUUCUGCUGUAUACCUU [A20U U41A A56G U60C U78C C81U] | 0.08
23 | UAACAGGGGGCCACAGCAGUAGCGUUCACGUCGCAGCCCCAGUCAGAUUCUGGUGGAUCUGCGAAUUCUGCCGUAUAUCUC [A20U U41A A56G U72C] | 0.27
24 | UAACAGGGGGCCACAGCAGUAGCGUUCACGUCGCAGCCCCAGUCAGAUCCUGGCGAAUGUGCGAAUUCAGCUGUAUAUCUC [A20U U41A U49C U54C C59G U69A] | 0.04
25 | UAACAGGGGGCCACAGCAGUAGCGUUCACGUCGCAGCCCCAGUCAGAUUCUGGCGAAUAUGCGAAUUCUGCUGUAUAUCUC [A20U U41A U54C C59A] | 0.14
26 | UAACAGGGGGCCACAGCAGUAGCGUUCACGUCGCAGCCCCCGUCAGACUCUGGUGAAUCUGCGAAUUCUGCUGUAUAUCUC [A20U U41C U48C] | 0.49
27 | UAACAGGGGGCCACAGCAGUAGCGUUCACGUCGCAGCCCCCGUCAGAUUCUGGUGAAUCAGCGAAUUCUGCUGUAUAUCUC [A20U U41C U60A] | 0.16
28 | UAACAGGGGGCCACAGCAGUAGCGUUCACGUCGCAGCCCCUGACGGAUUCUGGUGAAUCUGCGAAUUCUGCUGUAUAUCUC [A20U U43A A45G] | 0.13
29 | UAACAGGGGGCCACAGCAGUAGCGUUCACGUCGCAGCCCCUGACAGAUUCUGGUGAGUCUGCGGACUCUGCUGUAUAACUC [A20U U43A A57G A64G U66C U78A] | 0.16
30 | UAACAGGGGGCCACAGCAGUAGCGUUCACGUCGCAGCCCCUGGCAGACUCUGGUGACUCUGUGAAUUCUGCUGUAUAUCUC [A20U U43G U48C A57C C62U] | 0.2
31 | UAACAGGGGGCCACAGCAGUAGCGUUCACGUCGCAGCCCCUGUCAGACUCUGGUGAAUCUGCGGAUUCUGCUGUAUGUCUC [A20U U48C A64G A77G] | 0.14
32 | UAACAGGGGGCCACAGCAGUAGCGUUCACGUCGCAGCCCCUGUCAGAUCCUGGUGAAUCUGCGAAUUCUGCUGUAUCUCUC [A20U U49C A77C] | 0.07
33 | UAACAGGGGGCCACAGCAGUAGCGUUCACGUCGCAGCCCCUGUCAGAUCCUGGUGAAUCUGCAAAUUCUGCUGUAUAUCUC [A20U U49C G63A] | 0.16
34 | UAACAGGGGGCCACAGCAGUAGCGUUCACGUCGCAGCCCCUGUCAGAUGCUGGUGAAUCUGCGGAUUCUGCUGUAUAUCUC [A20U U49G A64G] | 0.19
